Experimental data from PubChem BioAssay AID1240 (Sanford-Burnham Center for Chemical Genomics, 2008).
Hit rate of the full screen: of about 50,000 compounds, about 800 (1.6%) showed an effect of 50% or more. Some of the results follow.

Each compound was assayed against Bcl-2-like protein 10 (Homo sapiens) (UniProt Q9HD36) (assay: Phenotype converters, Bcl-B/TR3 peptide binding displacement, primary biochemical FP (AID 1240;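 further: 0% = Bcl-B with tracer peptide and DMSO and 100% = tracer peptide lacking Bcl-B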)). Conditions: GST-Bcl-B / FITC-TR3 peptide fluorescence polarization; stronger effect = higher value; compound at 3.75 mg/L.
Sequence of UniProt Q9HD36 (Q9HD36 whole entry, looked up): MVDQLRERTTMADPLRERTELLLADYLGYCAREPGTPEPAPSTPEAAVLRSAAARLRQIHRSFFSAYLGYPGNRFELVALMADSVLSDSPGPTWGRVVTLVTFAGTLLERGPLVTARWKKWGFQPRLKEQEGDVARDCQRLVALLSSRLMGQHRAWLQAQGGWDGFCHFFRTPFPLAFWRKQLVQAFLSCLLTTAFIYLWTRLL

| Compound | displacement [%] |
| --- | --- |
| O=C(CN1CCCC1)N1CCN(C(=O)c2ccccc2)C1 | -4.6 |
| Cc1ccc(C(=O)NC(NC(=S)Nc2cc(C)ccc2C)C(Cl)(Cl)Cl)cc1 (stereo unspecified) | 11.4 |
| COc1cc(CN2CCN(Cc3ccccn3)CC2)cc(OC)c1O | 0 |
| CCOc1ccc(C(NC(C)=O)c2ccc(OC)c(OC)c2)cc1 (stereo unspecified) | -1.3 |
| COc1ccc(/C=c2\oc3cccc4c(OC)ccc(c2=O)c34)cc1OC | -6.1 |
| CCOC(=O)C1=C(C)N=c2s/c(=C\c3ccc(C)cc3)c(=O)n2C1c1cccc([N+](=O)[O-])c1 (stereo unspecified) | 127 |
| CCCC(=O)Nc1cccc(-c2nc3ccccc3s2)c1C | 3.4 |
| COc1ccccc1N1CCN(/N=C\c2cccs2)CC1 | 2.5 |
| O=C(COc1ccc(Cl)cc1)Nc1ccc(-c2nc3ccccc3o2)c(O)c1 | 11 |
| CCn1c(O)c(C=Nc2ccccc2)sc1=S | 1.9 |
| O=Cc1cn(CCOc2ccccc2)c2ccccc12 | 6.8 |
| C=CCN1C(=O)/C(=C2\SC(=S)N(Cc3ccco3)C2=O)c2ccccc21 | 10.2 |
| COc1ccc(N2C(=O)CC(NC3CCCCC3)C2=O)cc1 (stereo unspecified) | -14.1 |
| CC1CCN(S(=O)(=O)c2cc(Cl)ccc2Cl)CC1 | 0 |
| CCOC(=O)C1=C(c2ccccc2)N=c2s/c(=C\c3ccc(OCC(N)=O)cc3)c(=O)n2C1c1cc(OC)ccc1OC (stereo unspecified) | 0.2 |
| c1n[nH]c(SCc2ccc(CSc3ncn[nH]3)cc2)n1 | 3.4 |
| CCC(=O)N(CCc1ccc(OC)cc1)C1CC(=O)N(c2ccc(Br)cc2)C1=O (stereo unspecified) | -2.6 |
| O=C(c1ccccc1)N1N=C(C(F)(F)F)CC1(O)c1ccccc1 (stereo unspecified) | 2.7 |
| CCOc1ccccc1N1C(=O)C2C3C=CC(C4CC34)C2C1=O (stereo unspecified) | -5 |
| Cc1ccc(S(=O)(=O)N/N=C/c2cccc(OS(=O)(=O)c3cccc([N+](=O)[O-])c3)c2)cc1 | -39.1 |
| COC(=O)c1ccc(COc2cc3oc(=O)c4c(c3cc2Cl)CCCC4)cc1 | -7.1 |
| COc1ccccc1NC(=O)C1=C(C)NC2=C(C(=O)CC(C)(C)C2)C1c1ccc2c(c1)OCO2 (stereo unspecified) | 10 |
| CCOC(=O)Nc1sc2c(c1C(=O)OCC)CCC(CC)C2 (stereo unspecified) | 15.9 |

| Compound | displacement [%] |
| --- | --- |
| N#CCSc1nc(N)c(C#N)cc1C#N | 1.4 |
| O=C(NCc1ccco1)C(=O)Nc1ccc(Cl)c(C(F)(F)F)c1 | -4.6 |
| O=C(N/N=C/C1CC=CCC1)c1ccc([N+](=O)[O-])cc1Cl (stereo unspecified) | 7.9 |
| CC(C(=O)Nc1ccc(-c2nc3ccccc3s2)c(O)c1)(c1ccccc1)c1ccccc1 | 3.9 |
| O=[N+]([O-])c1cc(/C=N/N2CCN(Cc3ccc(Cl)cc3)CC2)ccc1Cl | 9.1 |
| c1ccc(CCCN2CCN(Cc3cccnc3)CC2)cc1 | 3 |
| CCCC(=O)C1=C(SCC)CC(C)(C)CC1=O | -3.5 |
| COc1cc(C2Nc3ccccc3C(=O)N2Cc2ccco2)cc(OC)c1OC (stereo unspecified) | 12.9 |
| O=C(NCCc1ccc(Cl)cc1)C(=O)Nc1ccccc1 | 10.5 |
| COc1ccc(C(=O)/C=C(\C)c2ccc(OC)cc2)cc1 | 0.3 |
| NC(=O)NC(c1ccc(Cl)cc1)c1ccc(Cl)cc1 | 2.4 |
| CC1=NN(c2ccc(S(N)(=O)=O)cc2)C(=O)/C1=C\c1ccc(C)cc1 | -2.3 |
| Cc1ccc(/C(O)=C2\C(=O)C(=O)N(c3ccc(O)cc3)C2c2cccc(F)c2)cc1 (stereo unspecified) | -10.2 |
| c1ccc2cc(CN3CCN(Cc4c[nH]c5ccccc45)CC3)ccc2c1 | 10 |
| COC(=O)/C(=C\C=C\N(C)c1ccccc1)C(C)=O | 1.8 |
| COc1ccc(NC(=O)COc2ccc(Cl)cc2C)cc1 | 1.5 |
| CC1=C(C(=O)OCc2ccccc2)C(c2ccc(C(F)(F)F)cc2)CC(=O)N1 (stereo unspecified) | -5.8 |
| CC1=NNC(=O)C1CC(=O)N/N=C/c1cccc(O)c1 (stereo unspecified) | -3.9 |
| Cc1ccc(CC2C(=O)N(c3ccc(Cl)c(Cl)c3)C(=O)C2C)cc1 (stereo unspecified) | 0.6 |
| O=C(/C=C/c1ccc2c(c1)OCCO2)c1c(-c2ccccc2)c2cc(Br)ccc2[nH]c1=O | -15.3 |
| CN(c1ccc(C(=O)Nc2cc(Cl)cc(Cl)c2)cc1)S(=O)(=O)c1ccccc1 | -14.6 |
| Cc1cc(NC(=O)c2cccc(OC(C)C)c2)no1 | 2.1 |
| CCOC(=O)C1=C(C)NC2=C(C(=O)CC(C)(C)C2)C1c1ccc(N2CCOCC2)cc1 (stereo unspecified) | 8.7 |

| Compound | displacement [%] |
| --- | --- |
| Cc1ccc(OCC(=O)Nc2ccc3c(c2)OCO3)c(C)c1 | -2.3 |
| CN1CCCc2c1nc1c(c2N)CCCC1 | -16.9 |
| Cc1cccc(OCC(=O)N2CCN(c3ccccn3)CC2)c1 | 8.7 |
| Cc1ccc(OCC(=O)Nc2ccccc2C#N)c(C)c1 | -12.1 |
| CCc1nn(-c2ccccc2)c(N)c1-c1ccc(OC)c(OC)c1 | -1.4 |
| O=C1NC(=O)C(=Cc2cc(Br)ccc2OCc2cccc3ccccc23)C(=O)N1 | 13.9 |
| O=C(O)/C(=C\c1ccccc1)NC(=O)c1ccccc1 | 12.8 |
| c1ccc2c(c1)CC1(CCCC1)n1nnnc1-2 | 3 |
| CCN(CC)c1ccc(Nc2cc(C)nc3ncnn23)cc1 | -8.7 |
| C=C(C)COc1cc2oc(=O)cc(C)c2cc1Cl | 1.2 |
| Cc1ccc(C(C)C)c(OCCNC(=O)Cc2cccc3ccccc23)c1 | 9.6 |
| O=C(CN1C(=O)CCC1=O)Nc1cccc2ccccc12 | -5.4 |
| O=C(Nc1ccc(F)c(Cl)c1)C1CC2CCC1C2 (stereo unspecified) | 16.5 |
| O=C(O)C1CCCCN1Cc1ccccc1 (stereo unspecified) | -3.4 |
| Cc1ccccc1C(=O)Nc1sc2c(c1C(N)=O)CCCCC2 | 0.6 |
| COc1cc(C(N)=O)cc(OC)c1OC | 18.6 |
| CCC1=NN(C(=O)COc2ccccc2)C(O)(c2ccncc2)C1 (stereo unspecified) | -9 |
| CCOc1ccc(NC2(c3ccccc3)C(=O)c3ccccc3C2=O)cc1 | 16.4 |
| O=C(c1ccc(Br)cc1)N1CCN(c2ccc(Cl)cc2[N+](=O)[O-])CC1 | 10.9 |
| COc1cc(/C=N/Nc2nc(N3CCCCC3)nc(N3CCCCC3)n2)cc(Br)c1O | -7.2 |
| Cc1cccc(NC(=O)/C(=C/c2ccc(C)o2)NC(=O)c2ccccc2)c1 | 12.5 |
| O=C(NCc1ccco1)/C(=C/c1ccc(F)cc1)NC(=O)c1ccccc1Cl | -15 |
| O=C(COc1ccccc1)Nc1ccccc1CO | 10.8 |

| Compound | displacement [%] |
| --- | --- |
| CC(C)C(=O)Nc1ccc2oc(-c3ccc(C(C)(C)C)cc3)nc2c1 | 4.2 |
| CCc1ccc(NC(=O)C(=O)NCC2CCCO2)cc1 (stereo unspecified) | 12.1 |
| COc1ccc(OCC(=O)N2CCN(c3ccc([N+](=O)[O-])cc3)CC2)cc1 | 0.3 |
| Cc1ccc(NCC(=O)N/N=C\c2cccc(OC(=O)c3ccccc3)c2)cc1 | 3.6 |
| COc1ccc(-c2nc3ccccc3nc2N2CCCCC2)cc1 | -4.8 |
| O=C(O)CN1C(=O)/C(=C\c2ccc(OCc3ccccc3)cc2)SC1=S | 9.6 |
| CCOC(=O)COc1ccc(/C=C2\C(=O)NC(=O)N(C)C2=O)cc1OC | 8.5 |
| O=C(Nc1ccc2nc(-c3ccc(O)cc3)sc2c1)C1CCCCC1 | 5 |
| COC(=O)c1cc(NC(=O)Cc2ccccc2)cc(C(=O)OC)c1 | -4 |
| CCc1ccccc1N(CC(=O)Nc1ccc(Br)cc1)S(C)(=O)=O | 3.9 |
| CCOc1cc(/C=C2\SC(=Nc3cccc(Cl)c3C)NC2=O)ccc1O | -11.7 |
| COc1ccc(C(=O)Nc2nc(-c3ccc(S(=O)(=O)N4CCOCC4)cc3)cs2)cc1 | 4.9 |
| O=C1C2C(c3ccccc3)C=CC(c3ccccc3)C2C(=O)N1Cc1ccc(F)cc1 (stereo unspecified) | -7.7 |
| Cc1cccc(NCN2C(=O)S/C(=C/c3ccccc3Cl)C2=O)c1 | 9.1 |
| O=C1CC(N2CCC(Cc3ccccc3)CC2)C(=O)N1Cc1ccc(Cl)cc1 (stereo unspecified) | -5.8 |
| Cc1nnc(N(CCC(N)=O)CCC(N)=O)s1 | 9.6 |
| Cc1c(NC(=O)Cn2cnc3c2c(=O)n(C)c(=O)n3C)cccc1[N+](=O)[O-] | 15.9 |
| COc1cc(C(=O)N2CCN(S(=O)(=O)c3ccccc3)CC2)cc(OC)c1OC | -7.7 |
| CCOC(=O)C1=C(O)/C(=C/c2ccc(OC)cc2)SC1=Nc1cccc2ccccc12 | 9.3 |
| CCCN1CCC(=NNC(=O)c2cccc([N+](=O)[O-])c2)CC1 | 11.8 |
| O=C(Nc1ccc(F)c(Cl)c1)c1cc2n(n1)C(C(F)(F)F)CC(c1cccs1)N2 (stereo unspecified) | -0.7 |
| Cc1nc2cc(-c3ccccc3)sc2c(=O)n1N | -3.5 |
| Cc1ccccc1C(=O)Nc1ccc(Cl)c(C(N)=O)c1 | -27.4 |

| Compound | displacement [%] |
| --- | --- |
| COc1cc(CN2CCN(C3CCC(c4ccccc4)CC3)CC2)cc(OC)c1OC (stereo unspecified) | 5.6 |
| CCCC(=O)c1c(NCc2ccccc2)cc(C)oc1=O | -7.3 |
| COc1cc(NC(=O)c2ccc(F)cc2)cc(OC)c1 | -9.2 |
| Cc1cccc(C(=O)Nc2cc(Cl)cc(Cl)c2)c1 | 26.9 |
| Cc1ccc([N+](=O)[O-])cc1NC(=O)c1cc2ccccc2cc1O | -2.9 |
| COc1ccccc1OCCCOc1cccc2ccccc12 | 3 |
| CCC(NS(=O)(=O)c1ccc2c(c1)Cc1cc(S(=O)(=O)NC(CC)C(=O)O)ccc1-2)C(=O)O (stereo unspecified) | 7.3 |
| CC1=C(C(=O)OC(C)C)C(c2ccccc2)N2C(=O)CCSC2=N1 (stereo unspecified) | 61.6 |
| O=[N+]([O-])c1cc(-n2cnnn2)ccc1Sc1nnnn1-c1ccccc1 | 1.2 |
| CCOc1ccc(NC(=S)NC(NC(=O)c2ccccc2)C(Cl)(Cl)Cl)cc1 (stereo unspecified) | -7.8 |
| Cc1cc(C)cc(OCCCNCCO)c1 | 0.6 |
| Cc1ccc(C(O)(c2ccccc2)c2nc3ccccc3n2C(C)C)cc1 (stereo unspecified) | -9.3 |
| Cc1ccc(OCCNc2cc(Cl)ccc2[N+](=O)[O-])cc1C | 0.6 |
| CC12OC3(CCCCC3)C(C)(OC13CCCCC3)O2 | 3.7 |
| CCOC(=O)C1=C(c2ccccc2)OC(N(C)C)C(c2ccccc2)=C1 (stereo unspecified) | 1.8 |
| O=C(N/N=C/c1ccc([N+](=O)[O-])cc1)c1cc(-c2ccc3ccccc3c2)n[nH]1 | -5.3 |
| COc1cc(C=C2C(=O)N(C)C(=O)N(C)C2=O)ccc1OCc1ccc(C(=O)O)cc1 | -8.7 |
| COc1ccccc1CNC1CCCCC1OC (stereo unspecified) | -1.2 |
| Cc1nc(-c2ccc(NC(=O)c3ccccc3)cc2)cs1 | 1 |
